Data as given in article PMC7819943, “Rice protein-binding microarrays: a tool to detect cis-acting elements near promoter regions in rice”.
The list shows a part of the results.

Each sequence was assayed against T1, OsWOX13 (Oryza sativa, UniProt Q5QMM3 1-267) (assay: protein-binding microarray (RPBM); PBS, 2% BSA, 51.3 ng/ul salmon testes DNA, 50 uM zinc acetate, 200 nM TF, 25 C, 1 h; high values mean tight binding). Conditions: protein: recombinant; tags: N-terminal polyhistidine and DsRed monomer fusion (pET32a); label: CyDye5-dUTP incorporated in the synthesized complementary strand; 3' TTTTT single-stranded linker to array surface; dsDNA, one strand shown.
T1 sequence: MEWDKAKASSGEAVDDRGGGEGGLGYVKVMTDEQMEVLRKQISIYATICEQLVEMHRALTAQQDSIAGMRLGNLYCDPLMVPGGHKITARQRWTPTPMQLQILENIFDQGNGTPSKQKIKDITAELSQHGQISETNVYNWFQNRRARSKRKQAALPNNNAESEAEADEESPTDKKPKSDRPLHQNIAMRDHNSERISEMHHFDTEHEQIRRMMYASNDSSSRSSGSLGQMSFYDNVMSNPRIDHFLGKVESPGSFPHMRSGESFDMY
In short: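 Binding signal here means per-feature fluorescence intensity in arbitrary units. The values were read on an Axon 4000B scanner after a custom Agilent array, double-stranded by primer extension with Cy5-dUTP, was incubated with 200 nM protein at 25 °C for 1 h in PBS with 2% BSA, salmon testes DNA and 50 µM zinc acetate, then washed. The proteins were transcription factors with an N-terminal polyhistidine tag and DsRed, expressed in E. coli BL21-CodonPlus and purified on Ni–NTA.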

“ATCTGCTAATTCAATGTTACTGGACTCTATTTATTCAGCCCGGAGTCACCTAGTGCAG” was tested. Which binding signal did it give?
The binding signal was 3190 fluorescence intensity (a.u.).

With “GCTCTCACAGTGATGGACAGTCCATAGAATCCCATAAAAGCGGAGTCACCTAGTGCAG” as the sequence, how does the binding signal read?
Its binding signal is 3210 fluorescence intensity (a.u.).

“AGACTTTCAGTTAGTTTATTGACATAAATTACCGCCATAACGGAGTCACCTAGTGCAG” was tested. Which binding signal did it give?
Its binding signal is 12900 fluorescence intensity (a.u.).

With “CTTAATTTGAGTCAACTTAAATTTTAGTTTCTACATGATGCGGAGTCACCTAGTGCAG” as the sequence, how does the binding signal read?
The binding signal was 46400 fluorescence intensity (a.u.).

“ACGATGATTACCTGCTCGTTAAGAAAAGCTTTCTACTTGTCGGAGTCACCTAGTGCAG” was tested. Which binding signal did it give?
Its binding signal is 22600 fluorescence intensity (a.u.).

Which binding signal does the source give for “TGTGCAATGTCATCAATTTATGTATTGTGTGTACCCTATCCGGAGTCACCTAGTGCAG” here?
The binding signal was 4340 fluorescence intensity (a.u.).

For “GATATCGTACGACAAGGCTTGGAGGGCAAAACAGAAAGCACGGAGTCACCTAGTGCAG”, which binding signal is on record?
The binding signal was 24200 fluorescence intensity (a.u.).

“GACAAATTATTAAACTTGAACAAAATCAGTGGTACCAAATCGGAGTCACCTAGTGCAG” was tested. Which binding signal did it give?
The binding signal was 9910 fluorescence intensity (a.u.).

For “GGCTAATATACTGGATTAATTCATGTTTGCTACTAGCCCCCGGAGTCACCTAGTGCAG”, which binding signal is on record?
Its binding signal is 11000 fluorescence intensity (a.u.).

How did the binding signal turn out when “CACTGACAGCCTAGCTAACTGGGAATAGCTAGGCGTACTTCGGAGTCACCTAGTGCAG” was run?
The binding signal was 5500 fluorescence intensity (a.u.).

How did the binding signal turn out when “CTAATTTACTCATCATAGGGACAACAAAACATCTGGGTTACGGAGTCACCTAGTGCAG” was run?
Its binding signal is 7840 fluorescence intensity (a.u.).

With “AAAATTTGTCAATAAATATATAGGCAGTCCCGGTCCGTTCCGGAGTCACCTAGTGCAG” as the sequence, how does the binding signal read?
Its binding signal is 4490 fluorescence intensity (a.u.).

Which binding signal does the source give for “GGCGATTGACATGTGGGCCACGTCCTAACCTTGGGCCCACCGGAGTCACCTAGTGCAG” here?
The binding signal was 20500 fluorescence intensity (a.u.).

“ATCAGATTAGCAGCAGACCAAAGAATTCTTCAGTATCAAGCGGAGTCACCTAGTGCAG” was tested. Which binding signal did it give?
The binding signal was 5140 fluorescence intensity (a.u.).

With “GCACTAAACAAAATGGTCTGATTGAGCCGAACAAGATAACCGGAGTCACCTAGTGCAG” as the sequence, how does the binding signal read?
The binding signal was 12200 fluorescence intensity (a.u.).

How did the binding signal turn out when “CATAAATTACTTTAAATCTAAGCTCCACACTTCATGTGCCCGGAGTCACCTAGTGCAG” was run?
Its binding signal is 39500 fluorescence intensity (a.u.).

With “TGGATGATTGATGGAAGACGATCAGATTTTAGTTGAACCACGGAGTCACCTAGTGCAG” as the sequence, how does the binding signal read?
Its binding signal is 46600 fluorescence intensity (a.u.).

For “CCTGATGTGACGACCTCCCTGAATCCTCCTGATGTATACGCGGAGTCACCTAGTGCAG”, which binding signal is on record?
Its binding signal is 15100 fluorescence intensity (a.u.).

How did the binding signal turn out when “GCCTCTCTCTCTTCTCTGATTGATTACTACTCCACTACAGCGGAGTCACCTAGTGCAG” was run?
Its binding signal is 25700 fluorescence intensity (a.u.).

For “GATAATTAATCAATGATGAACCTCCTGTAAGAAACTGAAGCGGAGTCACCTAGTGCAG”, which binding signal is on record?
The binding signal was 25400 fluorescence intensity (a.u.).

For “TCTGCAATGATAAGACAATGATTAGAACCATGAAACTCGACGGAGTCACCTAGTGCAG”, which binding signal is on record?
The binding signal was 9950 fluorescence intensity (a.u.).

How did the binding signal turn out when “ATACAACTAAATTAAATGGTTGGACTCCTCATGTTGAAGACGGAGTCACCTAGTGCAG” was run?
Its binding signal is 5220 fluorescence intensity (a.u.).

How did the binding signal turn out when “GTCATGGCAATCTTAGATAGCCAATCAAAGTGTCTGAGTACGGAGTCACCTAGTGCAG” was run?
The binding signal was 11100 fluorescence intensity (a.u.).

How did the binding signal turn out when “ACTTTAACTATTAATTTATTTTATATTATGTTACCAACGACGGAGTCACCTAGTGCAG” was run?
Its binding signal is 23900 fluorescence intensity (a.u.).

Which binding signal does the source give for “ATTTGATGAATCTGTATATTAAATTGTCAATTTGTGTACCCGGAGTCACCTAGTGCAG” here?
Its binding signal is 19400 fluorescence intensity (a.u.).

With “AATCTGATTTTCTGATTGCTATGGATTGTTTTCACACAAACGGAGTCACCTAGTGCAG” as the sequence, how does the binding signal read?
Its binding signal is 14700 fluorescence intensity (a.u.).

Which binding signal does the source give for “GGAATTAATTAATGAATCACGTAGGCTACCTGGGTTGAAGCGGAGTCACCTAGTGCAG” here?
Its binding signal is 45800 fluorescence intensity (a.u.).

“TTGTAGATTGTTTAGGGATTGTTGTGTTGTTGTTCATTATCGGAGTCACCTAGTGCAG” was tested. Which binding signal did it give?
The binding signal was 15600 fluorescence intensity (a.u.).

How did the binding signal turn out when “GTTATATGTGTATGACAGATTGATGTGATGGAAAATATCCCGGAGTCACCTAGTGCAG” was run?
The binding signal was 9650 fluorescence intensity (a.u.).

“TATATTTAAATCATTAATATCTTGGTCCAACTCATTTTGGCGGAGTCACCTAGTGCAG” was tested. Which binding signal did it give?
Its binding signal is 5780 fluorescence intensity (a.u.).

“CGTAATTAGTAGGTTGATTACTATTTGCTAATCATAAGTGCGGAGTCACCTAGTGCAG” was tested. Which binding signal did it give?
The binding signal was 65200 fluorescence intensity (a.u.).

“GTGAGTAAATAAAATCATTTATTGAAGATTACAATTGTATCGGAGTCACCTAGTGCAG” was tested. Which binding signal did it give?
Its binding signal is 6590 fluorescence intensity (a.u.).

With “GCCATAAAATTAGGAACAAAATTATGTAGCTCTGTGATGGCGGAGTCACCTAGTGCAG” as the sequence, how does the binding signal read?
Its binding signal is 6670 fluorescence intensity (a.u.).

For “CCTAATTAATCCGTCATTAGCAAATGTGGGTTACTGTAGCCGGAGTCACCTAGTGCAG”, which binding signal is on record?
The binding signal was 35500 fluorescence intensity (a.u.).

With “ATAAGTTTCCATCGGCTGATTGCGTTCTTTCCTTAACTGACGGAGTCACCTAGTGCAG” as the sequence, how does the binding signal read?
Its binding signal is 4330 fluorescence intensity (a.u.).

How did the binding signal turn out when “CATGGACGATCAAATTTAAACACGAAAATTTATGGTTGCACGGAGTCACCTAGTGCAG” was run?
Its binding signal is 3630 fluorescence intensity (a.u.).

Which binding signal does the source give for “TGTTGACAATAATTGTTGACATTGTCGATGAGACGAGAGACGGAGTCACCTAGTGCAG” here?
Its binding signal is 26000 fluorescence intensity (a.u.).

With “GTTGTTAATGTACATCCATCATGATTTCCAATTCAGTTTCCGGAGTCACCTAGTGCAG” as the sequence, how does the binding signal read?
Its binding signal is 10500 fluorescence intensity (a.u.).

“CAACAAGATTGTTGTCGGACTAATGCCTCACTGCTTGGTCCGGAGTCACCTAGTGCAG” was tested. Which binding signal did it give?
The binding signal was 3540 fluorescence intensity (a.u.).

“ATCAAATTTTGTGATGAGCAGAGCAGTCACTGCCGTGCTACGGAGTCACCTAGTGCAG” was tested. Which binding signal did it give?
The binding signal was 6810 fluorescence intensity (a.u.).

With “TTTAAACAGATCCCGTCCATTCCAATTGTAGCGAACCGGTCGGAGTCACCTAGTGCAG” as the sequence, how does the binding signal read?
The binding signal was 7440 fluorescence intensity (a.u.).

Which binding signal does the source give for “TGATGGAATTAGAATATTAATAATTAACATAGGGTGCAATCGGAGTCACCTAGTGCAG” here?
The binding signal was 8280 fluorescence intensity (a.u.).
